# Screen size: about 52,000 compounds; about 1,700 (3.3%) were called active. No stated cut-off is given here; in the data, active means survival mostly below about 52% (no sharp cut-off); inactive means mostly above about 56%. The list shows a part of the results.
# Test system: Wild type
# Experiment: growth inhibition of S. aureus wild type versus tarO mutant, primary screen, teichoic acid synthesis inhibitors, RN4220, OD600 (AID 463173)
# Conditions: S. aureus RN4220 wild type/DeltatarO growth, OD600, 18 h, active compounds read low, screened at 18.75 µg/mL (by protocol)
row,Compound,survival
1,Cc1ccc(O)c(NC(=O)CCS(=O)(=O)c2nc(-c3cccs3)cc(C(F)(F)F)n2)c1,inactive: 94%
2,Cc1cccc(-n2c(C)cc(C(=O)C(=O)Nc3nncs3)c2C)c1,inactive: 87%
3,COc1ccc(CCNc2ncnc3c2c(-c2ccccc2)cn3-c2ccc(Cl)cc2)cc1OC,inactive: 113%
4,COc1cc(CN(C(=O)c2ccc(OC(C)C)cc2)c2ccccn2)cc(OC)c1OC,inactive: 108%
5,COc1cccc(-c2nc(CS(=O)(=O)CC(=O)Nc3cccc(C(C)=O)c3)c(C)o2)c1,inactive: 71%
6,COC(=O)c1ccc(NC(=O)C2CCN(c3ncnc4c3nc3n4CCCCC3)CC2)cc1,inactive: 71%
7,CCOC(=O)CSc1nc2ccc(NC(=O)c3ccc(Cl)cc3)cc2s1,inactive: 90%
8,Cc1cc(C)cc(Nc2cc(C(=O)NC3CCCCC3)c3ccccc3n2)c1,inactive: 124%
9,Cc1cc(C)cc(NC(=O)CSc2c(C(C)C)cnc3c2c(=O)n(C)c(=O)n3C)c1,inactive: 74%
10,CCOC(=O)c1cc(C)n(CC2CCC(C(=O)Nc3ccc(OC)cc3)CC2)c1C (stereo unspecified),inactive: 79%
11,Fc1ccc(-c2cc3ncc4c(n3n2)-c2cc(Cl)ccc2OC4)cc1,inactive: 94%
12,CCOC(=O)c1ccccc1NC(=O)CSc1nnc(CC)n2c1cc1occc12,inactive: 67%
13,COc1ccc(C)cc1NC(=O)c1cc(S(=O)(=O)N2CCC(C)CC2)ccc1F,inactive: 88%
14,Cc1ccc(Nc2ncnc3ccccc23)cc1,inactive: 118%
15,CCCCc1ccc(C(=O)Nc2ccc3nc(N4CCN(CC)CC4)cc(C)c3c2)cc1,inactive: 81%
16,CCCc1cc(C(=O)Nc2c(C)nn(Cc3c(Cl)cccc3Cl)c2C)no1,inactive: 75%
17,Cc1cc(C)c(S(=O)(=O)Nc2ccc(-c3ccc(N4CCCCCC4)nn3)cc2)c(C)c1,inactive: 72%
18,CN(CC(=O)NCc1ccccc1)S(=O)(=O)c1ccc2[nH]c3c(c2c1)CCCC3,inactive: 72%
19,COC(=O)c1ccc(OCC2c3cc(OC)c(OC)cc3CCN2C(=O)Cc2ccccc2)cc1 (stereo unspecified),inactive: 78%
20,Cn1cnnc1SCC(=O)Nc1ccc(C#N)cc1,inactive: 71%
21,CCc1ccccc1NC(=O)C1(C)Cc2ccccc2C(=O)O1 (stereo unspecified),inactive: 97%
22,COc1ccc(-c2cn3nc(N4CCCC(C(=O)Nc5cc(C)cc(C)c5)C4)sc3n2)cc1 (stereo unspecified),inactive: 71%

row,Compound,survival
1,CCN(Cc1ccccc1)S(=O)(=O)c1cc(C(=O)Nc2cc(Cl)cc(Cl)c2)ccc1F,inactive: 68%
2,COc1ccc(-c2[nH]c(-c3cccc(OC)c3)nc2SCC(=O)NC2CCCC2)cc1,inactive: 144%
3,O=S(=O)(NCC(c1cccs1)S(=O)(=O)c1ccccc1)c1ccc(F)c(C(F)(F)F)c1 (stereo unspecified),inactive: 79%
4,CC(C)(C)C1CCc2c(sc(NC(=O)c3ccc(Cl)cc3)c2C(=O)NCc2ccco2)C1 (stereo unspecified),inactive: 95%
5,COc1ccccc1N1CCN(c2ncnc3c2cnn3-c2cccc(Cl)c2)CC1,active: -4%
6,CCN(CC)S(=O)(=O)c1ccc(C(=O)N2CC(=O)Nc3ccc(F)cc3C2c2ccccc2)cc1 (stereo unspecified),inactive: 81%
7,O=C(C1CCN(S(=O)(=O)c2ccc(Br)s2)CC1)N1CCN(c2ccccc2)CC1,inactive: 75%
8,CC(C)(C)OC(=O)N1CCC(c2c(C(=O)NCCc3ccccc3)cnn2-c2ccc(F)cc2)CC1,inactive: 78%
9,CC(=O)N1c2ccc(S(=O)(=O)NCC3CCC(C(=O)Nc4cc(C)ccc4C)CC3)cc2CC1C (stereo unspecified),inactive: 113%
10,COc1cc(NC(=O)c2c(C)oc3c2C2=NCCN2C=N3)cc(OC)c1OC,inactive: 81%
11,CC(=O)Nc1ccc2nc(SCCOc3cc(C)cc(C)c3)sc2c1,inactive: 85%
12,COc1ccc(CCN2C(=O)NC(NS(=O)(=O)c3ccc(NC(C)=O)cc3)(C(F)(F)F)C2=O)cc1OC (stereo unspecified),inactive: 72%
13,COc1ccc(OCC(=O)NCc2ccc3c(c2)CCN3C(=O)c2ccc(F)cc2)cc1,inactive: 131%
14,CCc1ccc(-c2nn(CC(=O)NCc3ccccc3)c3c2cnc2ccc(F)cc23)cc1,inactive: 83%
15,Cc1ccccc1CCN(Cc1cc2c(C)ccc(C)c2[nH]c1=O)C(=O)c1cnccn1,inactive: 112%
16,COc1cc(NC(=O)COCc2cc(-c3ccc4c(c3)OCO4)on2)cc(OC)c1,inactive: 128%
17,CN(C)c1ccc(/C=C(\C#N)c2nc(-c3ccc(Cl)c(Cl)c3)cs2)cc1,inactive: 89%
18,Cn1c2ccccc2c2cnn(CC(=O)Nc3ccccc3C(F)(F)F)c(=O)c21,inactive: 79%
19,Cc1ccccc1-c1noc(-c2ccc(N3CCOCC3)c([N+](=O)[O-])c2)n1,inactive: 98%
20,Cc1ccc(-n2c(=O)c3c(cnn3C)n(Cc3ccccc3F)c2=O)cc1,inactive: 96%
21,COc1cc(NC(=O)c2oc3c(c2C)-c2nn(Cc4cccc(Cl)c4)cc2CC3)cc(OC)c1,inactive: 74%
22,CCOc1ccc(N(C(C)C(=O)Nc2cc(Cl)ccc2OC)S(C)(=O)=O)cc1 (stereo unspecified),inactive: 76%

row,Compound,survival
1,O=C(Nc1ccc(OC(F)(F)F)cc1)C1CCN(S(=O)(=O)c2cccs2)CC1,inactive: 78%
2,CCN(CC)C(=O)c1sc2c(c1C)c(=O)n(-c1ccc(OC)cc1OC)c(=O)n2CC(=O)c1ccc(Cl)cc1,inactive: 131%
3,CCn1cc(S(=O)(=O)c2ccccc2)c(=O)c2cc(F)c(N3CCN(c4ccccc4)CC3)cc21,inactive: 120%
4,Cc1ccc(Cn2c(CN3CCC(C(=O)NCCc4ccccc4)CC3)cc3ccccc32)cc1,inactive: 77%
5,N#Cc1ccc(C(=O)Nc2ccc3c(c2)N(C2CCCC2)C(=O)c2ccccc2S3)cc1,inactive: 87%
6,COc1ccc(Cl)cc1NC(=O)C1CC(=O)n2c(nc3ccccc32)N1 (stereo unspecified),inactive: 112%
7,CC(C)Sc1ncc(Cl)c(C(=O)N(Cc2ccc(N(C)C)cc2)C2CCS(=O)(=O)C2)n1 (stereo unspecified),inactive: 80%
8,CCc1nn(CC(=O)Nc2ccc(N(CC)CC)cc2C)c(=O)c2cc3sccc3n12,inactive: 96%
9,O=C(NCCc1nc2ccccc2n1Cc1ccc(Cl)cc1Cl)c1ccco1,inactive: 76%
10,CCn1ccc2c(OCC(=O)NCc3ccc(F)cc3)cccc2c1=O,inactive: 87%
11,Cc1ccc(-c2noc(-c3ccccc3NC(=O)C3CC(=O)N(c4ccccc4C)C3)n2)cc1 (stereo unspecified),inactive: 120%
12,Cc1nn(-c2ccc(N3CCCC3)nn2)c(C)c1CCC(=O)Nc1ccc(F)c(Cl)c1,inactive: 54%
13,CC(C)Cn1c(=O)c2ccccc2n2c(CCC(=O)NC(C)c3ccccc3)nnc12 (stereo unspecified),inactive: 85%
14,Cc1onc(-c2c(Cl)cccc2Cl)c1C(=O)n1c(C)nc2ccccc21,inactive: 105%
15,CCOc1ccc(C2C(C(=O)Nc3ccccc3)=C(C)Nc3nc(SCc4cc(C)ccc4C)nn32)cc1 (stereo unspecified),inactive: 124%
16,Cc1cc(C)c2nc(N(Cc3cccnc3)C(=O)c3cccs3)sc2c1,inactive: 55%
17,COc1cc(-c2nc(Cn3nnc(C(=O)Nc4ccc(C)cc4C)c3C)c(C)o2)cc(OC)c1OC,inactive: 70%
18,Cc1oc(-c2ccccc2F)nc1CS(=O)(=O)CC(=O)NCCc1ccc(Cl)cc1,inactive: 132%
19,O=C(/C=C/c1ccco1)CC1(O)C(=O)Nc2ccccc21 (stereo unspecified),inactive: 108%
20,CSc1ncc(C(=O)N2CCN(c3cc(Cl)ccc3C)CC2)c(C)n1,inactive: 65%
21,CCCN(C(=O)CCc1nc(-c2ccc(OC)cc2)no1)c1ccccc1F,active: 0%
22,COc1cccc2cc(-c3nnc(Nc4c(F)cccc4F)s3)c(=O)oc12,inactive: 66%

row,Compound,survival
1,COc1ccc(CN2CCC(C(=O)NC3CCCC3)CC2)cc1,inactive: 84%
2,Cc1ccc(NC(=O)CN(C)S(=O)(=O)c2ccc3[nH]c4c(c3c2)CCCC4)c(Cl)c1,inactive: 78%
3,COc1ccc(CC(=O)NCCc2csc3nc(-c4ccccc4F)nn23)cc1,inactive: 55%
4,COc1ccc(N2CCN(c3oc(-c4ccc(COc5cccc(C)c5)o4)nc3C#N)CC2)cc1,inactive: 124%
5,COc1ccccc1C(=O)Nc1ccc(OCc2cc(=O)n3ccsc3n2)cc1,inactive: 88%
6,O=C(CSc1nc2c([nH]c3ccccc32)c(=O)n1-c1ccccc1)Nc1ccc2c(c1)OCCO2,inactive: 87%
7,COc1ccc(NC(=O)Cn2ncc3c2-c2ccccc2OC3)cc1Cl,inactive: 67%
8,Cc1cccc(NC(=O)c2sc3nc(N4CCOCC4)c4c(c3c2N)CC(C)(C)OC4)c1,inactive: 71%
9,CC1=C(C(=O)Nc2ccc(C)cc2Cl)C2(CCCCCC2)OC1=O,inactive: 113%
10,CC(=O)N1c2ccc(S(=O)(=O)NCCC(=O)Nc3ccc(Br)c(C)c3)cc2CC1C (stereo unspecified),inactive: 85%
11,CCC(=O)c1cc2c(cc1NC(=O)c1ccccc1F)OCCO2,inactive: 81%
12,CCN(CC)c1sc(S(=O)(=O)c2ccccc2)nc1S(=O)(=O)c1ccc(C)cc1,inactive: 80%
13,CCOc1ccc(CCNC(=O)c2ccc(-n3c(C)cc4c3CCC(C)C4)cc2)cc1OCC (stereo unspecified),inactive: 84%
14,CCN(CCCNC(=O)c1cc2c(Cl)nc3ccccc3c2s1)Cc1ccccc1,inactive: 96%
15,Cc1ccc(C)c2sc(N3CCN(C(=O)C(C)(C)C)CC3)nc12,inactive: 85%
16,CC(=O)OC(COCc1ccccc1)Cn1cnc2ccccc21 (stereo unspecified),inactive: 119%
17,COc1ccc(N2CC(NC(=O)c3ccc(S(=O)(=O)N4CCOCC4)cc3)CC2=O)cc1OC (stereo unspecified),inactive: 73%
18,CCN(CC)CCNC(=O)Nc1ccc2c(c1)N(Cc1ccccc1)C(=O)c1ccccc1S2,inactive: 106%
19,CCOC(=O)c1cn(CC2CC2)c2cc(F)c(F)cc2c1=O,inactive: 93%
20,CC(C)(C)c1ccc(-c2nc(SCC(=O)Nc3ccc(Cl)cc3)[nH]c(=O)c2C#N)cc1,inactive: 25%
